Data reported in a compilation of properties of binary mixtures (doi:10.1016/j.molliq.2018.09.007).
The densities may have been worked out from excess volumes.

Experiment: xn = mol fraction of the nth substance listed
Settings: 100 kPa

CN(C)C=O + CC[n+]1ccn(C)c1.O=S(=O)([O-])C(F)(F)F
x1 = 1
Settings | mass density [kg/m3]
303.15 K | 939.2
308.15 K | 934.7
313.15 K | 929.6
318.15 K | 924.8
323.15 K | 920

CC[n+]1ccn(C)c1.O=S(=O)([O-])C(F)(F)F + CN(C)C=O
mass density [kg/m3]
Settings | x2 = 0.0917 | x2 = 0.1933 | x2 = 0.2995 | x2 = 0.406 | x2 = 0.5094 | x2 = 0.5976 | x2 = 0.6947 | x2 = 0.7981 | x2 = 0.8957
298.15 K | 1363.5 | – | 1318.9 | 1290 | 1257.3 | 1224.2 | 1179.9 | 1119.6 | 1047.2
303.15 K | 1359.4 | 1339.1 | 1314.7 | – | 1253.2 | 1219.8 | 1175.4 | 1115.1 | 1042.6
308.15 K | 1355.3 | 1335.1 | 1310.7 | – | 1249 | 1215.7 | 1171.2 | 1110.6 | 1038.3
313.15 K | 1351.2 | 1331 | 1306.5 | 1277.4 | 1244.6 | – | 1166.5 | – | 1033.3
318.15 K | – | – | – | 1273.2 | 1240.4 | 1207.1 | – | 1101.4 | 1028.7
323.15 K | 1343 | 1322.8 | 1298.2 | 1269.2 | 1236.3 | 1202.8 | – | 1096.9 | 1024
